In patent publication US20210100913A1, “ACTIVATABLE ANTI-CD166 ANTIBODIES AND METHODS OF USE THEREOF” (priority 2017, published 2021):

Key:
[1] = test system: head and neck squamous cell carcinoma (HNSCC); assay: phase 1/2 dose-escalation study: tumor response in a subject with HNSCC; assay type: in vivo, human; details: for tumor burden: 5 mg/kg every 3 weeks, 41 mm at initial screening
[2] = pharmacokinetics of total and intact anti-CD166 activatable antibody and metabolites in serum of human subjects; assay type: in vivo

B1: Combination 55 (conjugate)
heavy: QITLKESGPTLVKPTQTLTLTCTFSGFSLSTYGMGVGWIRQPPGKALEWLANIWWSEDKHYSPSLKSRLTITKDTSKNQVVLTITNVDPVDTATYYCVQIDYGNDYAFTYWGQGTLVTVSS[… human IgG1 constant region …]
light: QGQSGQGLCHPAVLSAWESCSSGGGSSGGSAVGLLAPPGGLSGRSDNHGGSDIVMTQSPLSLPVTPGEPASISCRSSKSLLHSNGITYLYWYLQKPGQSPQLLIYQMSNLASGVPDRFSGSGSGTDFTLKISRVEAEDVGVYYCAQNLELPYTFGQGTKLEIKRTVAAPSVFIFPPSDEQLKSGTASVVCLLNNFYPREAKVQWKVDNALQSGNSQESVTEQDSKDSTYSLSSTLTLSKADYEKHKVYACEVTHQGLSSPVTKSFNRGEC
[1]; 5 mg/kg (AIBW) every 3 weeks
  response since initial screening, RECIST v1.1 classification: Partial Response
[1]; 5 mg/kg (AIBW) every 3 weeks, initial screening (41 mm) to Cycle 3 visit, 9 weeks after first administration
  change in tumor burden: −31.7%
[1]; Cycle 3 visit (9 weeks)
  tumor burden: 28 mm
[1]; Cycle 6 visit (18 weeks)
  tumor burden: 31.5 mm
[1]; only target lesions at initial screening
  development of new tumors while on study: not observed to develop any new tumors
[2]; 0.25 to 4.0 mg/kg (AIBW) of Combination 55
  form in which anti-CD166 activatable antibody circulates in the serum: predominantly in an intact form
[2]; across doses
  ratio of intact to total anti-CD166 activatable antibody for Dose 1 AUC0-tau and Cmax: approximately consistent
[2]; multiple dosing
  dose trend of Cmin accumulation ratio for intact anti-CD166 activatable antibody: did not trend with dose
[2]; multiple dosing every 21 days
  accumulation ratio of minimum plasma concentration (Cmin) (Dose 3:Dose 1) for intact anti-CD166 activatable antibody: ≤ 1.34
[2]; single dose
  intact and total anti-CD166 activatable antibody exposure (AUC0-tau and Cmax) versus dose: generally increased with increasing dose
